Results as given in PubChem BioAssay AID493208 (National Center for Advancing Translational Sciences (NCATS), 2011).
The campaign covered roughly 44,000 compounds. About 340 (0.77%) were called active. Inconclusive results (about 5%) are left out. Calls follow the shape of the dose curve; as a rule, active = well fitted inhibition curve with a large enough effect; inconclusive = small, poorly fitted or top-dose-only effect; inactive = flat fitted curve, though single readings scatter. The list shows a part of the results.

Assay: Acumen qHTS Assay for Inhibitors of the mTORC1 Signaling Pathway in MEF (Tsc2-/-, p53-/-) Cells: Sytravon;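 also: plate controls were DMSO for no effect and rapamycin for full effect; nearly all actives have a fitted effect of over 50% in size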
Details: phospho-rpS6 immunofluorescence/PI, 24 h; series mostly up to 38.3 µM; activity change, negative = inhibition: at the top concentration
In short: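 Tsc2-/-, p53-/- mouse embryonic fibroblasts (empty-vector line) exposed to compound 24 hrs at 37 C, fixed, immunostained for phospho-rpS6 and counterstained with propidium iodide. Acumen laser scanning gives % positive cells from Alexa 488/PI ratio, thresholded using 7.5 nM rapamycin; PI count gives viability.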

Activity change, negative = inhibition, inactive:
CC1CN(C(=O)N2CCC(C(=O)NC3CCCCCC3)CC2)c2ccccc2O1 (stereo not drawn) -3.39%, CCCN1C(=O)c2[nH]nc(-c3ccc(F)cc3)c2C1c1ccccn1 (stereo not drawn) -1.03%, Cc1ccc(N2CC(c3nnc(NC(=O)c4ccco4)s3)CC2=O)cc1C (stereo not drawn) 0%, O=C(NC1CCCC1)c1ccc(CSc2nc3ccncc3n2Cc2ccc(F)cc2)cc1 -11.6%, COc1ccc(-n2cc(C(=O)NC(C)c3ccccc3)c3ccccc3c2=O)cc1 (stereo not drawn) 7.13%, Cc1ccc(NC(=O)Cn2cc(S(=O)(=O)N3CCCC3)c(S(=O)(=O)N3CCCC3)c2)cc1C 1.95%, CCOc1ccc(NC(=O)c2ccc(-c3cccc(Cl)c3C)o2)cc1 12.3%, O=c1c2cc3c(nc2ncn1Cc1ccccc1F)CCCC3 -0.578%, CCOC(=O)c1cnc2c(ccc3ccccc32)c1Nc1ccc(OC)c(OC)c1 -12.7%, Cc1cccc(C2C=C(c3ccc(F)cc3)Nc3nc4ccccc4n32)c1 (stereo not drawn) -1.28%, CCOc1ccc(Cn2c(CNS(=O)(=O)c3ccc([N+](=O)[O-])cc3)nc3cccnc32)cc1 4.45%, COc1ccc(C(=O)NCCSc2c(C)[nH]c3ccccc23)cc1 -11.9%, COCCn1ccc2c(OCC(=O)NCc3ccc(F)cc3)cccc2c1=O -3.62%, Cc1ccc(NC(=O)Nc2nnc(SCC(=O)N3CCC(C)CC3)s2)cc1 2.88%, COc1ccc(C(=O)N2CCC(c3c[nH]c4ccccc34)(c3c[nH]c4ccccc34)CC2)cc1 3.42%, COc1ccccc1CNC(=O)c1oc2c(c1C)-c1nn(Cc3ccc(Cl)cc3)cc1CC2 12.1%, COc1ccc(NC(=O)c2cc(C3CC3)nc3c2c(C)nn3-c2ccc(C)cc2)cc1OC -0.843%, CN(C)c1ccc(CNC(=O)C2CCN(S(=O)(=O)c3cn(C)cn3)CC2)cc1 0%, Cc1ccc(C)c(CN2C(=O)c3ccccc3S(=O)c3ccc(C(=O)NCCc4ccc(Cl)cc4)cc32)c1 (stereo not drawn) -3.55%, COc1ccc(NC(=O)c2sc3nc(-c4cc5cccc(OC)c5oc4=O)[nH]c(=O)c3c2C)cc1 5.08%, CCOc1ccc(N(CC)S(=O)(=O)N2CCCC(C(=O)NCc3ccc(SC)cc3)C2)cc1 (stereo not drawn) -18.2%, COc1cccc(CNC(=O)NCc2noc3ccc(C)cc23)c1 2.05%, Cc1ccc(NC(=O)CN2C=NS(=O)(=O)c3ccccc32)c(C)c1 -6.16%, COc1ccc(NC(=O)CN2C(=O)COc3ccc(S(=O)(=O)N4CCOCC4)cc32)cc1Cl 0.254%, COc1ccc(NC(=O)Nc2nnc(N3CCCCCC3)s2)c(OC)c1 0.387%, COc1ccc(N2CCN(C(=O)CCS(=O)(=O)c3cc(Br)cc4c3N(C(=O)C3CC3)CC4)CC2)cc1 -14.5%, COc1ccc(NC(=O)Cn2c(=O)c3cc(Cl)ccc3n3nncc23)cc1 -9.14%, CCOc1ccc(C(=O)c2cn(CC(=O)Nc3ccc4c(c3)OCCO4)c3ccc(F)cc3c2=O)cc1 0.573%, CC(C)CCNS(=O)(=O)c1ccc(N2CCCCS2(=O)=O)cc1 0%, COC(=O)CN1C(=O)CSc2ccc(S(=O)(=O)Nc3ccc(C(C)=O)cc3)cc21 2.25%, CN(C(=O)CSc1nc(C2CCCC2)nc2c1c(=O)n(C)c(=O)n2C)c1ccccc1 0%, Cc1cccc(C)c1OC(=O)CSc1nnc(CNC(=O)c2ccccc2)o1 -7.13%, CC1CCN(C(=O)CSc2nnc(-c3ccccc3)o2)CC1 2.24%, O=C(CSc1oc(-c2ccccc2)nc1S(=O)(=O)c1ccc(Cl)cc1)NC1CCCCC1 3.75%, COCCCNC(=O)CSc1nc2cc3c(cc2c(=O)n1CCCCCC(=O)NCc1ccc(OC)cc1)OCO3 -2.23%, CC(C)COC(=O)Cn1nnc2sc(-c3ccccc3)cc2c1=O 0.362%, Cc1cc(C)c(NS(=O)(=O)c2cc(-c3onc(C)c3C)ccc2C)c(C)c1 9.52%, O=C(CN1CCCN(S(=O)(=O)c2ccc(Br)cc2)CC1)Nc1cccc(C(F)(F)F)c1 -1.24%, CC1CCN(C(=O)c2ccc3c(c2)N(Cc2ccccc2)C(=O)c2ccccc2S3(=O)=O)CC1 -14.4%, Cc1ccc(NC(=O)c2cnc(SCC(=O)N3CCOCC3)n(C)c2=O)cc1C 3.84%, COc1ccccc1-c1noc(-c2ccc(NCc3ccco3)c([N+](=O)[O-])c2)n1 -7.41%, O=C(Nc1cccc(C(F)(F)F)c1)c1cc(S(=O)(=O)N2CCCC2)c[nH]1 -9.2%, COc1ccc(NC(=O)Cn2nnc(C(=O)NCc3ccc4c(c3)OCO4)c2N)cc1 -2.15%, Cc1cccc(N2CCN(C(=O)c3ccc4c(Cl)c5c(nc4c3)CCCC5)CC2C)c1 (stereo not drawn) -3.63%, CCN(Cc1ccccc1)Cc1c(O)ccc2c(=O)c(-c3ccc(Cl)cc3)coc12 2.75%, O=C(NCc1ccccc1Cl)c1cnc(N2CCOCC2)c2ccccc12 1.98%, Cc1ccc(-c2cc(-c3coc4ccc(Cl)cc4c3=O)c3c(n2)-c2ccccc2OC3)cc1 3.23%, Cc1ccc2cccc(NC(=O)c3cccc4c(Cl)cccc34)c2n1 6%, Cc1ccc(C)c(N2CCN(C(=O)CCNS(=O)(=O)c3ccc4c(c3)CCN4C(=O)C3CC3)CC2)c1 -1.21%, O=C(C1CCC(Cn2c(=O)c3sccc3n(Cc3ccccc3)c2=O)CC1)N1CCCCC1 (stereo not drawn) -1.91%, COc1ccc(OC)c(NC(=O)CC2C(=O)NCCN2C(=O)C(F)(F)F)c1 (stereo not drawn) -9.31%, CCOc1ccc(NC(=O)CCc2nc3cccnc3n2-c2ccccc2)cc1 -15%, COc1ccc2c(c1)c(CC(=O)Nc1ccc(C(C)=O)cc1)c(C)n2C(=O)c1ccc(Cl)cc1 -8.91%, COc1ccc(NC(=O)c2oc3ccccc3c2NC(=O)C23CC4CC(CC(C4)C2)C3)c(OC)c1 -5%, Cc1ccc(NC(=O)c2oc3ccccc3c2NC(=O)c2ccc(F)c(F)c2)cc1 8.65%, COc1ccc(S(=O)(=O)NCCS(=O)(=O)N2CCN(c3ccccc3)CC2)cc1OC -17%, CCc1ccc(NC(=O)CSc2nc3c(oc4ccccc43)c(=O)n2-c2cccc(C)c2)cc1 10.8%, O=C(Nc1nc2ccc(Cl)cc2s1)c1cc(=O)c2ccccc2o1 -4.58%, CCc1cccc(CC)c1NC(=O)C(Cc1ccccc1)NS(=O)(=O)c1cccc2nsnc12 (stereo not drawn) -12.3%, CC(C)CN(CCCNC(=O)c1cc(=O)[nH]c2ccc(S(=O)(=O)N3CCCC3)cc12)CC(C)C -11.6%, CCc1cnc2c(c1SCc1ccccc1C)c(=O)n(C)c(=O)n2C -0.115%, COc1cccc(C(=O)NC(=NCCc2c[nH]c3ccc(OC)cc23)Nc2nc(C)cc(C)n2)c1 -3.77%, COc1cc2c(cc1OC)n(CC(=O)c1cccc(Cl)c1)c(=O)n1nc(CCn3nc(C)cc3C)nc21 -2.7%, Cc1ccc(Nc2sc(C(=O)c3ccccc3)c(N)c2C(=O)Nc2ccc(Cl)cc2)cc1 -7.55%, CCOCCCNC(=O)c1cc(Sc2cccc(Cl)c2)nc2ccccc12 9.98%, COc1ccc(-c2cn3nc(N4CCCC(C(=O)Nc5cccc(OC)c5)C4)sc3n2)cc1 (stereo not drawn) 3.84%, O=C(CCN1C(=O)c2ccccc2Sc2ncccc21)Nc1ccc(F)cc1F 0.371%, COc1cccc(C(=O)N2c3ccc(C)cc3C(C)(c3ccccc3)CC2(C)C)c1 (stereo not drawn) -11%, COc1ccc(C2NC(=O)NC(C)=C2C(=O)Nc2ccccc2)cc1OC (stereo not drawn) 8.08%, Cc1ccccc1C(=O)Nc1sc2c(c1C(=O)N1CCCCC1)CCC(C)C2 (stereo not drawn) -2.47%, Cc1ccc(CC(=O)Nc2ccc3c(c2)N(C)C(=O)c2ccccc2S3)cc1 -8.46%, O=C(NCc1cccnc1)C(=O)NCC(c1cccnc1)N1CCN(c2ccc(F)cc2)CC1 (stereo not drawn) 0.984%, CCOC(=O)c1ccc(NC(=O)C(Cc2ccccc2)N2Cc3ccccc3C2=O)cc1 (stereo not drawn) -1.8%, Cc1ccc(-c2nn3c(=O)cc(CN4CCN(C(=O)/C=C/c5ccccc5)CC4)nc3s2)cc1 1.31%, CCn1c(=O)c2sccc2n2c(CCCC(=O)N3CCN(c4cccc(Cl)c4)CC3)nnc12 0.154%, CCCOc1ccc(C(=O)Nc2ccc3oc(-c4cccc(Cl)c4Cl)nc3c2)cc1 12.2%, CCc1ccc(-c2cn3c(n2)sc2cc(C(=O)NCCC4=CCCCC4)ccc23)cc1 6.05%, CCOC(=O)c1ccc(NC(=O)CSc2cn(CC(=O)N3CCCC3)c3ccccc23)cc1 -14.4%, Cc1ccc(-n2nc3c(N4CCCC(C(=O)NCc5ccc(Cl)cc5)C4)nnc(C)c3c2C)cc1 (stereo not drawn) -8%, COC(=O)c1ccc2c(c1)N(CC(=O)Nc1ccc(OC)c(Cl)c1)C(=O)c1ccccc1S2 4.63%, CC(C)c1ccc(NC(=O)Cn2cc(S(=O)(=O)Cc3cccc(Cl)c3)c3ccccc32)cc1 -12.3%, COc1ccc(C(=O)Nc2nc3n(n2)C(c2ccccc2)C=C(c2ccccc2)N3)cc1 (stereo not drawn) -3.94%, N#Cc1nc(COc2cccc(Cl)c2)oc1NCCc1ccccc1 2.79%, CC(C)c1ccc(NC(=O)CSc2nc(=O)n(Cc3ccccn3)c3c2CCC3)cc1 0.0426%, CCCn1c(SCc2nc(-c3ccccc3OCC)no2)nnc1-c1ccc(Cl)cc1 0.856%, CCOc1ccccc1C(=O)N(Cc1cc(OC)c(OC)c(OC)c1)c1ccccn1 -8.9%, COC(=O)CNC(=O)C1CCN(S(=O)(=O)c2cccc3nsnc23)CC1 1.75%, Cc1ccc(C(=O)c2c(N)c(C(=O)Nc3ccccc3Cl)c3ccccn23)cc1 -2.39%, CCOc1ccc(OCC(=O)NCCS(=O)(=O)N2CCN(c3ccccc3F)CC2)cc1 -13.3%, O=C(CN1C(=O)COc2ccc(Cl)cc21)Nc1cccc(F)c1 -7.02%, COc1ccc(S(=O)(=O)Nc2ccc(-c3ccc(N4CCCC4)nn3)cc2)cc1F 0%, Cc1sc2ncn(CC(=O)Nc3cccc(C(F)(F)F)c3)c(=O)c2c1S(=O)(=O)N1CCN(C)CC1 -4.44%, CC1=C(C(=O)Nc2ccc(C)cc2C)C(c2ccc([N+](=O)[O-])cc2)n2ncc(C(=O)Nc3ccc(F)cc3)c2N1 (stereo not drawn) -6.66%
